Laboratory results: the supplement of paper PMC3724861
Some of the results follow.

Tested on: T1, Caupolican (Caup) homeodomain DNA-binding domain
T1 sequence: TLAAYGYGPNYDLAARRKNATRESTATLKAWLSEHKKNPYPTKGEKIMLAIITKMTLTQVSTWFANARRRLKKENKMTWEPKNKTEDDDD
Assay: PBM E-score (8-mer, recovered from the published 9-mer minima) (E-score (dimensionless, -0.5 to 0.5)); Drosophila protein; higher = stronger relative binding preference, active = 0.31 or more
Procedure, shortened: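 An enrichment score, with higher meaning stronger, expresses relative binding preference for each short DNA word. The protein used was Caup's homeodomain DNA-binding domain (residues 214-303), produced by in vitro transcription and translation and tested at 100 nM on custom-designed protein binding microarrays. The 8-mer values were recovered from published 9-mer scores, each equal to the lower of its two constituent 8-mer scores.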

Sequence | PBM E-score
ACAGCTCT | inactive: -0.0213
CCCTTTAC | inactive: -0.0517
AAAAAGTA | inactive: 0.118
ACTAGAGT | inactive: -0.0164
AACAGTAA | inactive: 0.151
AATCTGCG | inactive: -0.052
AGGTAGAT | inactive: -0.00648
CCCTTCCG | inactive: -0.241
ATATATCC | inactive: 0.142
ACCGCGGT | inactive: -0.139
TATTAAAA | inactive: 0.0786
GAAGACTC | inactive: -0.0665
GGTCGTAC | inactive: 0.0868
GGGTGGAA | inactive: -0.03
CATTAGGA | inactive: 0.0453
ACCGACGA | inactive: -0.0426
GTCCCGAC | inactive: -0.0659
GTGCTGAA | inactive: 0.0551
GGAAGTAC | inactive: -0.00067
TACCAGTA | ≥ 0.164
ATATCGGC | inactive: 0.00498
CTATCCTC | inactive: -0.139
CATGGGCC | inactive: -0.147

Sequence | PBM E-score
GACGTCGC | inactive: -0.131
GACAAGAA | inactive: 0.297
AAAACCTT | inactive: -0.0528
CCCAACTC | inactive: -0.151
CAAGGTTC | inactive: -0.0588
GATCGTAA | inactive: 0.082
CCGAGATC | inactive: -0.0774
CAGAACCA | inactive: -0.00851
AAAAGATG | inactive: 0.141
ATTACAGC | inactive: 0.128
ACGCATTG | inactive: 0.0415
ATTAGAAT | inactive: 0.155
AACGCGAT | inactive: 0.0454
CTGCAAAA | inactive: -0.0244
CGCCAGAG | inactive: -0.216
ACAGTACC | inactive: 0.106
ATCGAACC | inactive: -0.0139
ACAACTCG | inactive: 0.229
AGGATTAT | inactive: 0.0036
AGCATACC | inactive: 0.0239
CCAAAAGC | inactive: -0.185
CAGGCATC | inactive: 0.0211
AATGATCT | inactive: 0.0982

Sequence | PBM E-score
GCCTTATA | inactive: -0.054
CGGATGGA | ≥ 0.022
GTGTGGGA | inactive: -0.00973
CGAAAACG | inactive: -0.113
CATTCATC | inactive: 0.0989
TCAGCGGA | inactive: -0.139
CGTCAAAG | inactive: 0.0139
CCTTATAA | inactive: 0.0288
AATATGTG | inactive: 0.259
ACGTACCC | inactive: 0.00217
CACAGTCA | inactive: 0.0769
CATTTACC | inactive: 0.152
AGCATGAG | inactive: 0.104
CGTTTCAG | inactive: -0.0507
CGAGTATC | inactive: -0.0742
ATCCCGGA | inactive: -0.045
CAACCAGC | inactive: 0.0253
ACAGGGGG | inactive: -0.181
GCGCCAGC | inactive: -0.258
GGCTGCCC | inactive: -0.363
GAATTACC | inactive: 0.0891
GTACGGAC | inactive: 0.0959
ACGAGCGG | inactive: -0.0452

Sequence | PBM E-score
AGGAGCGC | inactive: -0.19
GGCTGATA | inactive: 0.0181
CCGGTTGA | inactive: -0.111
GGGGATTA | inactive: -0.0502
TGCAAAAA | inactive: 0.0586
ATCGTGGC | inactive: -0.0433
ATTTCTCG | ≥ 0.0689
AGCTCTGA | inactive: -0.0958
AATAGCAT | inactive: 0.135
GCTAGTCC | inactive: -0.0319
AGCGACCT | inactive: -0.0697
AATTCTCA | inactive: 0.0607
AAAGAAAG | inactive: -0.0768
AGACGACC | inactive: -0.113
AGGTGGAG | inactive: -0.0813
CTAGCTAG | inactive: 0.0575
GAAACAAA | inactive: 0.203
CGATGCGA | inactive: -0.14
GAAGTTCA | inactive: -0.00306
AACCGCGC | inactive: -0.103
AGGGCCGC | inactive: -0.251
ACTTTCGC | inactive: -0.0524
AACCAGGT | inactive: 0.0425

Sequence | PBM E-score
CTCTGGGA | inactive: -0.227
AGTGGGCA | inactive: -0.0967
AGTCCACC | inactive: -0.0521
AAGAAGAG | inactive: -0.0933
GAAATACA | inactive: 0.263
GTGGTCAA | inactive: -0.0171
CGAGATAC | inactive: 0.142
ACGCGAAC | inactive: -0.0449
GCGACGCA | inactive: -0.023
TGTACTAA | inactive: 0.279
ACCATGGA | inactive: 0.0206
GCGTGGAC | inactive: -0.0872
CGTGTCTA | inactive: 0.267
CTAACTGA | inactive: 0.0488
AGCTTTTA | inactive: -0.0204
CGGGCTAC | inactive: -0.128
CAAGTAGC | inactive: 0.108
ATAATTCG | inactive: 0.113
CGTCCACG | inactive: -0.0892
